For 111 molecules, z-score results are on record in PubChem BioAssay AID488969 (Vanderbilt High Throughput Screening Facility, 2010).

Over roughly 110,000 compounds, “z-score” has its median near -0.1; the highest 2% begin near 2. Some of the results follow.

The experiment has as its target Metabotropic glutamate receptor 8 (Rattus norvegicus) (UniProt P70579). The experiment is described as follows: rat mGluR8 modulators via GIRK flux, primary screen, cell-based, thallium flux, HTS (AID 488969). To be noted: HEK293 rat mGluR8, GIRK (G protein-gated inwardly rectifying potassium channel) thallium flux, FluoZin2; at 10 µM; stronger effect = higher value; submaximal glutamate (EC20) added with thallium.
UniProt P70579, sequence (P70579 whole entry, looked up): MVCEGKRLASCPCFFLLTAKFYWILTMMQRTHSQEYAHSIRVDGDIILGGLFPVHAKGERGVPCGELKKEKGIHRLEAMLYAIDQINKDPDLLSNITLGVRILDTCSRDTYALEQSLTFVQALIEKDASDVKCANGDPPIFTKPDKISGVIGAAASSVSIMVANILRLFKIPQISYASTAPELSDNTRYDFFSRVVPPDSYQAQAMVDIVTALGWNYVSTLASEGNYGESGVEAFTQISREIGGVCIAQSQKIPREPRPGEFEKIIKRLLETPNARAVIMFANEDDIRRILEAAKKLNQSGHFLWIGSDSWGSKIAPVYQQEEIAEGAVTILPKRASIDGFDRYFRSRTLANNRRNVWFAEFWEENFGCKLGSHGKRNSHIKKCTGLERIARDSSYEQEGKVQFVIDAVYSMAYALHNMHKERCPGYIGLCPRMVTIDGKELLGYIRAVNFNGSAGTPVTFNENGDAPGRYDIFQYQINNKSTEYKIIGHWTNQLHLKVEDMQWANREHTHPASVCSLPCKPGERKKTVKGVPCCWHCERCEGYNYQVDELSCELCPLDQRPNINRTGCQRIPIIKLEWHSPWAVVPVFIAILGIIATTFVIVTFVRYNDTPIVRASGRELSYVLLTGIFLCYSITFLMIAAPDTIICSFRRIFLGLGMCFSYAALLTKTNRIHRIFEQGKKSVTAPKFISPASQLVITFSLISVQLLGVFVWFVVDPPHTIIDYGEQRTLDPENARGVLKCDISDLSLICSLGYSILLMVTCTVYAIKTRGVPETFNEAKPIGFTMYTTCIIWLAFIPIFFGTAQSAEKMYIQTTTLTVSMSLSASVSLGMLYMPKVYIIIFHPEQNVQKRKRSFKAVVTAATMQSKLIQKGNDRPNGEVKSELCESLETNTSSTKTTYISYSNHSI
`CCOC(=O)C1=C(C)N(c2ccccc2)C(=O)C1` yielded a z-score of -0.0976.

`O=C(Cc1cccs1)N/N=C/C=C\c1ccco1` had a z-score of -0.214.

The molecule `O=S(=O)(Nc1ccc(Cc2ccncc2)cc1)c1ccc(Br)cc1` came in with a z-score of -0.0457.

Turning to `Cc1ccc(CSc2nnc(NC(=O)C3COc4ccccc4O3)s2)cc1` (stereo unspecified), the z-score came to 0.266.

`CC(=O)c1nnn(-c2nc(N3CCCC3)nc(N(c3ccccc3)c3ccccc3)n2)c1C`: the z-score was determined as 0.0098.

`CCCc1cc(=O)[nH]c(SCc2ccc(Cl)cc2)n1` had a z-score of -0.8.

The molecule `COc1cc(C(=O)NCC(c2cccnc2)N2CCN(C)CC2)cc(OC)c1OC` (stereo unspecified) came in with a z-score of 0.674.

For `CCCCC(CC)Cn1c(O)c(/C=C2\C=NN=C2c2ccccc2)sc1=S` (stereo unspecified), the z-score was -0.0682.

The molecule `COc1cc(OC)cc(-n2nc(C(=O)N3CC(C)CC(C)C3)c3ccccc3c2=O)c1` (stereo unspecified) yielded a z-score of -0.264.

`N#Cc1cccc(NC(=O)N2CCC(c3nc4c(nnn4Cc4cccc(Cl)c4)c(=O)[nH]3)CC2)c1` came in with a z-score of -0.0995.

The molecule `c1coc(C2Nc3ccccc3C3OCCC23)c1` (stereo unspecified) displayed a z-score of 0.588.

The molecule `CS(=O)(=O)N(CC(=O)Nc1cccnc1)c1ccc2c(c1)OCCO2` gave a z-score of 0.255.

As for `O=c1[nH]c(N2CCc3ccccc3C2)nc2c1CCCC2`, the z-score was -0.332.

With `CC(NC(=O)c1ccco1)C(=O)Nc1nc(-c2ccccn2)cs1` (stereo unspecified), the z-score worked out at 0.159.

`CCN(CC)CCn1c(SCC(=O)NCc2ccco2)nc2c(sc3ccccc32)c1=O` gave a z-score of -0.759.

`Clc1cccc(CSc2nnc(-c3sccc3-n3cccc3)o2)c1` showed a z-score of 0.0269.

Turning to `O=C(Nn1c(O)c(C=C2N=c3ccccc3=N2)sc1=S)c1ccccc1Cl`, the z-score is -0.408.

As for `COc1ccc(N2C(=O)C(Cl)=C(NCc3ccccc3)C2=O)cc1`, the z-score is -0.782.

On to `CC(C)CCNC(=O)C(C)N(C(=O)Cn1nnc(-c2ccc(F)cc2)n1)C1CCCC1` (stereo unspecified), for which the z-score was determined as 2.82.

`CCOc1ccc(N(CC(=O)NC2CCCCC2)C(=O)CSc2nnc(COc3ccccc3)o2)cc1`: the z-score is 0.00541.

`CCOC(=O)CN1C(=O)C(Sc2n[nH]c(-c3ccc(C)cc3)n2)CCc2ccccc21` (stereo unspecified) showed a z-score of -0.743.

Consider `COc1ccc(OC)c(NC(=O)COC(=O)/C=C/c2ccccc2Cl)c1`, for which the z-score was -0.188.

As for `N#C/C(=C\c1ccc(N2CCOCC2)o1)c1ccccc1`, the z-score is 0.0284.

With `CCNc1nc2c(c(=O)[nH]c(=O)n2C)n1Cc1ccc(F)cc1`, the z-score came out at 0.101.

`O=C(c1ccc(NC(=S)Nc2ccc(Cl)c(Cl)c2)cc1)N1CCCC1`: the z-score is -0.457.

Molecule `Cc1ccc2ccc(C(Nc3ccccn3)c3ccccc3)c(O)c2n1` (stereo unspecified) returned a z-score of 0.351.

`COc1ccc(/C=C/C(=O)C2C(=O)C=C(C)OC2=O)cc1O` (stereo unspecified): the z-score is -0.279.

For the molecule `CC(=O)c1c(C)[nH]c(C(=O)Nc2nc(-c3ccc(Cl)cc3)cs2)c1C`, the z-score was -0.551.

As for `COc1ccc(Nc2nnc(SC(C(=O)Nc3ccc(OC)c(Cl)c3)c3ccccc3)s2)cc1` (stereo unspecified), the z-score was -0.22.

For the molecule `Cc1nn(C)c(C)c1NC(=O)CCCSc1nc(-c2ccco2)cc(C(F)(F)F)n1`, the z-score was -0.502.

Molecule `CCN(CC)CCN1C(=O)C(=O)/C(=C(/O)c2ccncc2)C1c1ccccc1` (stereo unspecified) displayed a z-score of 0.426.

In the case of `CCOc1ccc(S(=O)(=O)Nc2cc(OC)c(OC)cc2C(=O)O)cc1`, the z-score was 0.212.

`O=C(CCOc1ccccc1)N1CCN(S(=O)(=O)c2cccs2)CC1` displayed a z-score of -0.205.

As to `CCC(=O)c1ccc(OC(=O)c2ccc(Br)o2)cc1`, the z-score was -0.00202.

The molecule `CC(NC(=O)c1ccc(S(=O)(=O)N(C)C)cc1)c1ccccc1` (stereo unspecified) came in with a z-score of 0.967.

Turning to `Cc1ccc(N2CC(C(=O)N3CCc4ccccc43)CC2=O)cc1` (stereo unspecified), the z-score is -0.0766.

The molecule `COc1ccccc1S(=O)(=O)Cc1ccc(C(=O)NCc2ccc3c(c2)OCO3)o1` displayed a z-score of -0.0657.

In turn, `CC1CCN(S(=O)(=O)c2ccc(NC(=S)NC(=O)c3ccc(Cl)cc3)cc2)CC1` returned a z-score of -0.142.

The molecule `COc1ccc(N2CCN(C(c3cc4cc(C)ccc4[nH]c3=O)c3nnnn3Cc3ccccc3)CC2)cc1` (stereo unspecified) had a z-score of 0.064.

`COc1ccccc1N1CCN(CC(=O)Nc2c(C)n[nH]c2C)CC1` had a z-score of -0.64.

`Cc1noc(C)c1CSc1nnc2ccccn12` returned a z-score of -0.139.

Consider `CCOC(=O)Nc1oc2ccccc2c(=O)c1C`, for which the z-score is -0.0729.

`CC(C)Oc1ccc(C(CC(=O)NCCCN(C)C)c2ccc(F)cc2)cc1` (stereo unspecified) returned a z-score of -1.46.

`COc1ccccc1NS(=O)(=O)c1ccc(NC(=O)c2nc3ncccn3n2)cc1` returned a z-score of -0.0329.

Take `COc1cc(/C=N/Nc2ccc(Cl)cc2)ccc1OC(=O)c1cccs1`: the z-score was 0.925.

In the case of `COc1ccc(N2CCN(C(=O)CCc3ccc(S(=O)(=O)NC(C)C)cc3)CC2)cc1`, the z-score turned out to be 0.0553.

On to `Cc1cc(C)c(NC(=O)CO/N=C2\CCCc3nonc32)c(C)c1`, for which the z-score was 0.408.

With `O=C(/C=C/c1ccco1)Nc1ccc2nn(-c3ccccc3)nc2c1`, the z-score was -0.116.

`CO/N=C/NC(=O)NOCc1ncc(C(F)(F)F)cc1Cl` gave a z-score of -0.706.

In turn, `CN1CCN(C(=O)c2cc3nc(-c4ccccc4)cc(-c4ccccc4)n3n2)CC1` had a z-score of -0.147.

`O=C(CCSc1ccccc1)NC(=O)COC(=O)c1ccc(OC(F)F)cc1`: the z-score was -0.114.

With `CCOC(=O)c1ccccc1Nc1cn(C(C)=O)c2ccccc12`, the z-score was found to be 2.73.

`O=C(NC(O)C(=O)c1ccccc1)c1cccs1` (stereo unspecified): the z-score is -0.437.

Take `Cc1cccc(CC2CC(=O)N(c3ccccc3)C2=O)c1` (stereo unspecified): the z-score is -0.0577.

Regarding `COC(=O)c1cccc(NC(=O)Cc2coc3cc(OC)ccc23)c1`, the z-score is -0.827.

With `Cc1ccc(NC(=S)N(CCCN2CCOCC2)Cc2cccs2)c(C)c1`, the z-score was -0.169.

In turn, `O=C(CCCCCn1c(SCC(=O)c2ccccc2)nc2ccccc2c1=O)NCc1ccco1` yielded a z-score of -0.107.

For the molecule `CCn1c(CCNC(=O)c2ccc(Cl)cc2)n[nH]c1=S`, the z-score is -0.774.

With `O=C(N/N=C/c1ccco1)c1ccc(Br)o1`, the z-score stood at 0.452.

Molecule `CCOC(=O)c1ccc2c(c1)nc(SCC(=O)NC(C)C)n2CC` gave a z-score of -0.178.

Take `CCNC(=S)NNC(=O)Cc1ccccc1`: the z-score is -0.171.

In turn, `c1ccc(CNn2c(N3CCOCC3)nc3ccccc32)cc1` registered a z-score of 0.241.

Consider `COc1ccc(/C=C2\NC(=S)N(CC3CCCO3)C2=O)c(OC)c1C` (stereo unspecified), for which the z-score came out at 2.32.

In the case of `Cc1coc(C)c1C(=O)CC1(O)C(=O)N(CCc2ccccc2)c2ccccc21` (stereo unspecified), the z-score was -0.544.

As to `COCC(=O)NC(c1ccccc1)c1ccccc1`, the z-score was 0.129.

Regarding `CN(Cc1ccccc1)C(=O)Cn1nc(C(F)(F)F)c2c1CCC2`, the z-score came out at 1.1.

As for `O=C(NCCc1ccccc1)C(=O)NN=C1CCCC1`, the z-score was -0.407.

Molecule `COc1nc(-c2cccs2)cc(-c2ccc(C)cc2)c1C#N` returned a z-score of 0.115.

As to `N#Cc1c(N)nc2c3c(sc(=N)c2c1N)NC(=O)CC3c1ccccc1` (stereo unspecified), the z-score is -0.0395.

For the molecule `CC1=CC(C)(C)n2c(O)c(N=N)c3cc(C)cc1c32`, the z-score was -0.683.

In turn, `Cc1cccc(OCCNC(=O)c2ccc(Oc3ccc(C(F)(F)F)cc3[N+](=O)[O-])cc2)c1` came in with a z-score of -0.195.

Molecule `O=C(N1CCOCC1)N1CCN(c2ccc(F)cc2)CC1` gave a z-score of -0.0472.

As to `O=C(NCc1ccccc1)c1cc(=O)[nH]c2ccccc12`, the z-score amounted to 0.356.

Molecule `COc1cccc(-c2nn(C)c3sc(C(=O)NCc4ccc5c(c4)OCO5)cc23)c1` gave a z-score of -0.269.

Consider `CCCC(=O)c1c(C)c2ccccc2n1C`, for which the z-score was -0.809.

Regarding `Cc1cccnc1NC(=O)c1cc2c(=O)oc3ccccc3c2s1`, the z-score is -0.0284.

Turning to `CCCn1c(C(O)c2cc(OC)ccc2OC)nc2ccccc21` (stereo unspecified), the z-score is -0.331.

In turn, `CCN1C/C(=C/c2ccc(N3CCOCC3)cc2)C(=O)/C(=C/c2ccc(N3CCOCC3)cc2)C1` returned a z-score of -0.947.

In the case of `CC(C)NC(=O)NC(=O)CSc1nncn1C`, the z-score was -0.0717.

On to `CCCC(=O)Nc1nc2c(OC)ccc(OC)c2s1`, for which the z-score was determined as 0.152.

In the case of `CCN1C(=O)CSC1=NC12CC3CC(CC(C3)C1)C2`, the z-score was found to be 0.196.

In turn, `COC(=O)c1ccccc1NC(=O)c1ccc(-c2cccc(Cl)c2)o1` returned a z-score of -0.0272.

In the case of `CC(C)(C)NC(=O)C(c1c[nH]c2ccccc12)N(C(=O)Cn1nnc(-c2ccc(Cl)cc2)n1)c1ccccc1F` (stereo unspecified), the z-score was -0.447.

The molecule `O=C(Cn1cc2c(n1)CCCC2)NCc1cccs1` displayed a z-score of 0.0253.

The molecule `O=[N+]([O-])c1ccc(Cl)c(CN2CCC(O)CC2)c1` registered a z-score of -0.183.

`COc1cc(OC)cc(C(=O)NC(=S)Nc2cc3oc4ccccc4c3cc2OC)c1` showed a z-score of 0.106.

The molecule `COc1ccc(-c2cc(C(F)(F)F)nc(N3CCOCC3)n2)cc1OC` had a z-score of -0.32.

`COc1ccc2oc(=O)c(C(=O)N3c4ccccc4CC3C)cc2c1` (stereo unspecified) gave a z-score of -0.415.

`CN1CCN(S(=O)(=O)c2cc([N+](=O)[O-])ccc2N/N=C/c2ccc(Cl)cc2)CC1` yielded a z-score of 0.22.

Regarding `COc1ccc(NC(=O)C(C/C=C(/C)Cl)C(C)=O)cc1` (stereo unspecified), the z-score is -0.155.

Turning to `CCN(CC)c1ccc(NC(=O)c2cccc(OC)c2)c(C)c1`, the z-score turned out to be 0.0766.

`CC1(C)Cc2c(ccc3ccccc23)C(=O)N1` displayed a z-score of -0.203.

For `CN(Cc1ccccc1)C(=O)CN(Cc1ccccc1)S(C)(=O)=O`, the z-score stood at 0.0708.

The molecule `CC(=O)Nc1c(O)nc(SCc2ccccc2C#N)[nH]c1=O` had a z-score of -0.195.

In turn, `Cc1cc(=O)n2c3ccccc3n(CC(O)CN3CCCCC3)c2c1C#N` (stereo unspecified) registered a z-score of -0.251.

In turn, `COc1ccc(-c2cc(C(F)(F)F)n3nc(C)cc3n2)cc1` had a z-score of -0.182.

In the case of `Cc1ccnc(SCC(=O)Nc2c(C)n(C)n(-c3ccccc3)c2=O)n1`, the z-score is -0.181.

In turn, `CCCC1(CCC)NC(=O)N(CC(=O)Nc2cccc(OC)c2)C1=O` came in with a z-score of -1.59.

The molecule `CCOc1ccc(N2C(=O)CN(C)C2=S)cc1` gave a z-score of 1.35.

Consider `CNc1c([N+](=O)[O-])cnn1-c1ccc(Cl)cc1Cl`, for which the z-score was -0.197.

As to `CCOC(=O)c1ccccc1N/C=C/C(=O)c1cccs1`, the z-score is -0.488.

`Cc1c(Cl)c([N+](=O)[O-])nn1CCCC(=O)N(Cc1ccccc1)Cc1ccccc1` registered a z-score of -0.324.

In turn, `COc1ccc(CC(=O)N2CCCc3ccccc32)cc1` displayed a z-score of 0.036.

Regarding `C=CCn1c(Cc2cccs2)nnc1SCC(=O)c1ccc2ccccc2c1`, the z-score is -0.708.

`COc1cc2c(cc1OC)C(c1ccccc1)N(C(=O)CCl)CC2` (stereo unspecified) returned a z-score of -0.148.

Molecule `O=C(Nc1ccc2c(c1)OCO2)Nc1ccc(Cl)cc1Cl` yielded a z-score of 0.19.

The molecule `N/C(Cc1ccc([N+](=O)[O-])cc1)=N\OC(=O)COc1ccccc1Cl` came in with a z-score of -0.645.

Turning to `COc1ccc(CN2CCCC2C(=O)Nc2ccc(OC)c(OC)c2)cc1OC` (stereo unspecified), the z-score came to 0.166.

Take `Cc1ccc(C#CC[N+]2(CC#Cc3ccc(C)cc3)CCCCC2)cc1`: the z-score turned out to be 0.0354.

Consider `O=C(O)c1ccc2[nH]c3c(c2c1)CSCC3`, for which the z-score was 0.316.

For `O=C(CSc1ccccc1)NCc1ccco1`, the z-score is -0.232.
